# Data published in US9266939B2, “Compositions comprising natriuretic peptides and methods of use thereof” (Alexion Pharmaceuticals, Inc., priority 2010, dated 2016).
# How the values were obtained:
# NPR-B = NPR-B (Homo sapiens, UniProt P20594); experiment: EC50 (nM)
# wild-type mice = conditions: mouse, in vivo
# wild-type (CD-1) mice = experiment: Weekly bolus SC injection of NC2B on bone growth in wild-type (CD-1) mice; format: in vivo; conditions: for Crown-rump length in vivo (ruler) / Crown-rump length in vivo (ruler), % Δ compared to Vehicle / Crown-rump length in vivo (ruler), Δ compared to Vehicle / Left Femur length, % Δ compared to Vehicle / Left Femur length, Δ compared to Vehicle / Left Humerus length, % Δ compared to Vehicle / Left Humerus length, Δ compared to Vehicle / Left Tibia length, % Δ compared to Vehicle / Left Tibia length, Δ compared to Vehicle / Left Ulna length, % Δ compared to Vehicle / Left Ulna length, Δ compared to Vehicle / Naso-anal length (X-Ray) / Naso-anal length (X-Ray), % Δ compared to Vehicle / Naso-anal length (X-Ray), Δ compared to Vehicle / Tail length in vivo (ruler) / Tail length in vivo (ruler), % Δ compared to Vehicle / Tail length in vivo (ruler), Δ compared to Vehicle / Total CTL (cervical, thoracic, and lumbar) segments (X-Ray) / Total CTL segments (X-Ray), % Δ compared to Vehicle / Total CTL segments (X-Ray), Δ compared to Vehicle: day 36; for Left Femur length / Left Humerus length / Left Tibia length / Left Ulna length: day 36, caliper at necropsy
# Experimental: The study was designed to evaluate the effect of weekly subcutaneous (SC) administration of NC2B on bone growth in wild-type (WT) mice.
# CD-1 mice are a standard rodent species for use in pharmacodynamic studies, and these mice are described above in Example 14.
# The animals received NC2B as a subcutaneous injection into the interscapular region as described in Table 18 below.
# CD-1 mice were treated at 3 weeks old at the indicated doses for 35 consecutive days, followed by necropsy 24 hours after the last injection.
# Experiments were conducted as described above in Example 14.
# Experimental results are shown in FIGS. 44A-44B and are summarized in Table 19 (results at day 36) below. Data in Table 19 were obtained at necropsy with a caliper, unless otherwise noted.
# [1] = Tx-30-QD: 30 mg/kg SC once daily, 35 days
# [2] = Tx-30-QW: 30 mg/kg SC once weekly, 35 days
# [3] = Tx-100-5QD: 100 mg/kg SC once daily 5 days, then 30 days recovery
# [4] = Tx-100-QW: 100 mg/kg SC once weekly, 35 days
# [5] = Tx-200-QW: 200 mg/kg SC once weekly, 35 days
molecule,measurement,setting,value
"NC2B: NC2st without the sequence N-terminal to the Fc domain; SEQ ID NO: 504 (protein, Synthetic Construct (NC2B (w/o sig. seq.))) [not shown - human IgG1 Fc]GGGGSGGGGSGGGGSGGLSKGCFGLKLDRIGSMSGLGC",EC50,NPR-B,1090 nM
same,hypotensive (hemodynamic) effects,wild-type mice,limited and within an acceptable hemodynamic range at all tested doses
same,Crown-rump length in vivo (ruler),wild-type (CD-1) mice; [1],106* mm
same,"Crown-rump length in vivo (ruler), % Δ compared to Vehicle",wild-type (CD-1) mice; [1],8.3%
same,"Crown-rump length in vivo (ruler), Δ compared to Vehicle",wild-type (CD-1) mice; [1],8.1 mm
same,"Left Femur length, % Δ compared to Vehicle",wild-type (CD-1) mice; [1],8.0%
same,"Left Femur length, Δ compared to Vehicle",wild-type (CD-1) mice; [1],1.2 mm
same,"Left Humerus length, % Δ compared to Vehicle",wild-type (CD-1) mice; [1],4.9%
same,"Left Humerus length, Δ compared to Vehicle",wild-type (CD-1) mice; [1],0.6 mm
same,"Left Tibia length, % Δ compared to Vehicle",wild-type (CD-1) mice; [1],5.1%
same,"Left Tibia length, Δ compared to Vehicle",wild-type (CD-1) mice; [1],0.9 mm
same,"Left Ulna length, % Δ compared to Vehicle",wild-type (CD-1) mice; [1],6.4%
same,"Left Ulna length, Δ compared to Vehicle",wild-type (CD-1) mice; [1],0.9 mm
same,Naso-anal length (X-Ray),wild-type (CD-1) mice; [1],120* mm
same,"Naso-anal length (X-Ray), % Δ compared to Vehicle",wild-type (CD-1) mice; [1],11.1%
same,"Naso-anal length (X-Ray), Δ compared to Vehicle",wild-type (CD-1) mice; [1],12 mm
same,Tail length in vivo (ruler),wild-type (CD-1) mice; [1],109* mm
same,"Tail length in vivo (ruler), % Δ compared to Vehicle",wild-type (CD-1) mice; [1],10.0%
same,"Tail length in vivo (ruler), Δ compared to Vehicle",wild-type (CD-1) mice; [1],9.9 mm
same,"Total CTL (cervical, thoracic, and lumbar) segments (X-Ray)",wild-type (CD-1) mice; [1],57.9* mm
same,"Total CTL segments (X-Ray), % Δ compared to Vehicle",wild-type (CD-1) mice; [1],13.5%
same,"Total CTL segments (X-Ray), Δ compared to Vehicle",wild-type (CD-1) mice; [1],6.9 mm
same,Left Femur length,wild-type (CD-1) mice; [1],16.2* mm
same,Left Humerus length,wild-type (CD-1) mice; [1],12.8* mm
same,Left Tibia length,wild-type (CD-1) mice; [1],18.7* mm
same,Left Ulna length,wild-type (CD-1) mice; [1],14.9* mm
same,Crown-rump length in vivo (ruler),wild-type (CD-1) mice; [2],103* mm
same,"Crown-rump length in vivo (ruler), % Δ compared to Vehicle",wild-type (CD-1) mice; [2],5.2%
same,"Crown-rump length in vivo (ruler), Δ compared to Vehicle",wild-type (CD-1) mice; [2],5.1 mm
same,"Left Femur length, % Δ compared to Vehicle",wild-type (CD-1) mice; [2],4.0%
same,"Left Femur length, Δ compared to Vehicle",wild-type (CD-1) mice; [2],0.6 mm
same,"Left Humerus length, % Δ compared to Vehicle",wild-type (CD-1) mice; [2],3.3%
same,"Left Humerus length, Δ compared to Vehicle",wild-type (CD-1) mice; [2],0.4 mm
same,"Left Tibia length, % Δ compared to Vehicle",wild-type (CD-1) mice; [2],3.4%
same,"Left Tibia length, Δ compared to Vehicle",wild-type (CD-1) mice; [2],0.6 mm
same,"Left Ulna length, % Δ compared to Vehicle",wild-type (CD-1) mice; [2],2.9%
same,"Left Ulna length, Δ compared to Vehicle",wild-type (CD-1) mice; [2],0.4 mm
same,Naso-anal length (X-Ray),wild-type (CD-1) mice; [2],114*^# mm
same,"Naso-anal length (X-Ray), % Δ compared to Vehicle",wild-type (CD-1) mice; [2],5.6%
same,"Naso-anal length (X-Ray), Δ compared to Vehicle",wild-type (CD-1) mice; [2],6.0 mm
same,Tail length in vivo (ruler),wild-type (CD-1) mice; [2],104* mm
same,"Tail length in vivo (ruler), % Δ compared to Vehicle",wild-type (CD-1) mice; [2],4.9%
same,"Tail length in vivo (ruler), Δ compared to Vehicle",wild-type (CD-1) mice; [2],4.9 mm
same,"Total CTL (cervical, thoracic, and lumbar) segments (X-Ray)",wild-type (CD-1) mice; [2],54.4*^# mm
same,"Total CTL segments (X-Ray), % Δ compared to Vehicle",wild-type (CD-1) mice; [2],6.7%
same,"Total CTL segments (X-Ray), Δ compared to Vehicle",wild-type (CD-1) mice; [2],3.4 mm
same,Left Femur length,wild-type (CD-1) mice; [2],15.6*^# mm
same,Left Humerus length,wild-type (CD-1) mice; [2],12.6* mm
same,Left Tibia length,wild-type (CD-1) mice; [2],18.4* mm
same,Left Ulna length,wild-type (CD-1) mice; [2],14.4 mm
same,Crown-rump length in vivo (ruler),wild-type (CD-1) mice; [3],101^# mm
same,"Crown-rump length in vivo (ruler), % Δ compared to Vehicle",wild-type (CD-1) mice; [3],3.2%
same,"Crown-rump length in vivo (ruler), Δ compared to Vehicle",wild-type (CD-1) mice; [3],3.1 mm
same,"Left Femur length, % Δ compared to Vehicle",wild-type (CD-1) mice; [3],2.0%
same,"Left Femur length, Δ compared to Vehicle",wild-type (CD-1) mice; [3],0.3 mm
same,"Left Humerus length, % Δ compared to Vehicle",wild-type (CD-1) mice; [3],1.6%
same,"Left Humerus length, Δ compared to Vehicle",wild-type (CD-1) mice; [3],0.2 mm
same,"Left Tibia length, % Δ compared to Vehicle",wild-type (CD-1) mice; [3],3.4%
same,"Left Tibia length, Δ compared to Vehicle",wild-type (CD-1) mice; [3],0.6 mm
same,"Left Ulna length, % Δ compared to Vehicle",wild-type (CD-1) mice; [3],2.9%
same,"Left Ulna length, Δ compared to Vehicle",wild-type (CD-1) mice; [3],0.4 mm
same,Naso-anal length (X-Ray),wild-type (CD-1) mice; [3],112^# mm
same,"Naso-anal length (X-Ray), % Δ compared to Vehicle",wild-type (CD-1) mice; [3],3.7%
same,"Naso-anal length (X-Ray), Δ compared to Vehicle",wild-type (CD-1) mice; [3],4.0 mm
same,Tail length in vivo (ruler),wild-type (CD-1) mice; [3],104*^# mm
same,"Tail length in vivo (ruler), % Δ compared to Vehicle",wild-type (CD-1) mice; [3],4.9%
same,"Tail length in vivo (ruler), Δ compared to Vehicle",wild-type (CD-1) mice; [3],4.9 mm
same,"Total CTL (cervical, thoracic, and lumbar) segments (X-Ray)",wild-type (CD-1) mice; [3],53.0*^# mm
same,"Total CTL segments (X-Ray), % Δ compared to Vehicle",wild-type (CD-1) mice; [3],3.9%
same,"Total CTL segments (X-Ray), Δ compared to Vehicle",wild-type (CD-1) mice; [3],2.0 mm
same,Left Femur length,wild-type (CD-1) mice; [3],15.3^# mm
same,Left Humerus length,wild-type (CD-1) mice; [3],12.4^# mm
same,Left Tibia length,wild-type (CD-1) mice; [3],18.4* mm
same,Left Ulna length,wild-type (CD-1) mice; [3],14.4 mm
same,Crown-rump length in vivo (ruler),wild-type (CD-1) mice; [4],103* mm
same,"Crown-rump length in vivo (ruler), % Δ compared to Vehicle",wild-type (CD-1) mice; [4],5.2%
same,"Crown-rump length in vivo (ruler), Δ compared to Vehicle",wild-type (CD-1) mice; [4],5.1 mm
same,"Left Femur length, % Δ compared to Vehicle",wild-type (CD-1) mice; [4],4.0%
same,"Left Femur length, Δ compared to Vehicle",wild-type (CD-1) mice; [4],0.6 mm
same,"Left Humerus length, % Δ compared to Vehicle",wild-type (CD-1) mice; [4],3.3%
same,"Left Humerus length, Δ compared to Vehicle",wild-type (CD-1) mice; [4],0.4 mm
same,"Left Tibia length, % Δ compared to Vehicle",wild-type (CD-1) mice; [4],2.8%
same,"Left Tibia length, Δ compared to Vehicle",wild-type (CD-1) mice; [4],0.5 mm
same,"Left Ulna length, % Δ compared to Vehicle",wild-type (CD-1) mice; [4],2.9%
same,"Left Ulna length, Δ compared to Vehicle",wild-type (CD-1) mice; [4],0.4 mm
same,Naso-anal length (X-Ray),wild-type (CD-1) mice; [4],115*^# mm
same,"Naso-anal length (X-Ray), % Δ compared to Vehicle",wild-type (CD-1) mice; [4],6.5%
same,"Naso-anal length (X-Ray), Δ compared to Vehicle",wild-type (CD-1) mice; [4],7.0 mm
same,Tail length in vivo (ruler),wild-type (CD-1) mice; [4],104* mm
same,"Tail length in vivo (ruler), % Δ compared to Vehicle",wild-type (CD-1) mice; [4],4.9%
same,"Tail length in vivo (ruler), Δ compared to Vehicle",wild-type (CD-1) mice; [4],4.9 mm
same,"Total CTL (cervical, thoracic, and lumbar) segments (X-Ray)",wild-type (CD-1) mice; [4],54.5*^# mm
same,"Total CTL segments (X-Ray), % Δ compared to Vehicle",wild-type (CD-1) mice; [4],6.9%
same,"Total CTL segments (X-Ray), Δ compared to Vehicle",wild-type (CD-1) mice; [4],3.5 mm
same,Left Femur length,wild-type (CD-1) mice; [4],15.6*^# mm
same,Left Humerus length,wild-type (CD-1) mice; [4],12.6* mm
same,Left Tibia length,wild-type (CD-1) mice; [4],18.3 mm
same,Left Ulna length,wild-type (CD-1) mice; [4],14.4 mm
same,Crown-rump length in vivo (ruler),wild-type (CD-1) mice; [5],104* mm
same,"Crown-rump length in vivo (ruler), % Δ compared to Vehicle",wild-type (CD-1) mice; [5],6.2%
same,"Crown-rump length in vivo (ruler), Δ compared to Vehicle",wild-type (CD-1) mice; [5],6.1 mm
same,"Left Femur length, % Δ compared to Vehicle",wild-type (CD-1) mice; [5],5.3%
same,"Left Femur length, Δ compared to Vehicle",wild-type (CD-1) mice; [5],0.8 mm
same,"Left Humerus length, % Δ compared to Vehicle",wild-type (CD-1) mice; [5],3.3%
same,"Left Humerus length, Δ compared to Vehicle",wild-type (CD-1) mice; [5],0.4 mm
same,"Left Tibia length, % Δ compared to Vehicle",wild-type (CD-1) mice; [5],3.9%
same,"Left Tibia length, Δ compared to Vehicle",wild-type (CD-1) mice; [5],0.7 mm
same,"Left Ulna length, % Δ compared to Vehicle",wild-type (CD-1) mice; [5],2.1%
same,"Left Ulna length, Δ compared to Vehicle",wild-type (CD-1) mice; [5],0.3 mm
same,Naso-anal length (X-Ray),wild-type (CD-1) mice; [5],117* mm
same,"Naso-anal length (X-Ray), % Δ compared to Vehicle",wild-type (CD-1) mice; [5],8.3%
same,"Naso-anal length (X-Ray), Δ compared to Vehicle",wild-type (CD-1) mice; [5],9.0 mm
same,Tail length in vivo (ruler),wild-type (CD-1) mice; [5],107* mm
same,"Tail length in vivo (ruler), % Δ compared to Vehicle",wild-type (CD-1) mice; [5],8.0%
same,"Tail length in vivo (ruler), Δ compared to Vehicle",wild-type (CD-1) mice; [5],7.9 mm
same,"Total CTL (cervical, thoracic, and lumbar) segments (X-Ray)",wild-type (CD-1) mice; [5],55.9*^# mm
same,"Total CTL segments (X-Ray), % Δ compared to Vehicle",wild-type (CD-1) mice; [5],9.6%
same,"Total CTL segments (X-Ray), Δ compared to Vehicle",wild-type (CD-1) mice; [5],4.9 mm
same,Left Femur length,wild-type (CD-1) mice; [5],15.8* mm
same,Left Humerus length,wild-type (CD-1) mice; [5],12.6* mm
same,Left Tibia length,wild-type (CD-1) mice; [5],18.5* mm
same,Left Ulna length,wild-type (CD-1) mice; [5],14.3^# mm
same,bone growth,"wild-type (CD-1) mice; daily and weekly regimens, 35-day treatment period, wild-type mice",induced robust growth of almost all bone lengths

# Marks after values point to notes of the source that are not given here.
